Here are results for 9 molecules from patent US5227384A, “5-substituted [4,5-c] imidazopyridines and pharmaceutical use thereof” (G. D. Searle & Co., priority 1991, dated 1993).

The structures appear in SMILES notation.

The first test has as its target PAF receptor (Human Platelet Membrane Receptors) (Homo sapiens, UniProt P25105). Description: Inhibition of ^3 H-PAF Binding to Human Platelet Membrane Receptors. Particulars: read-out: Inhibition of ^3 H-PAF Binding to Human Platelet (IC50) μM; 0.75 nM ^3 H-PAF; 24° C., 30 minutes. How it is done: Inhibition of ^3 H-PAF Binding to Human Platelet Membrane Receptors
UniProt P25105, sequence (P25105 whole entry): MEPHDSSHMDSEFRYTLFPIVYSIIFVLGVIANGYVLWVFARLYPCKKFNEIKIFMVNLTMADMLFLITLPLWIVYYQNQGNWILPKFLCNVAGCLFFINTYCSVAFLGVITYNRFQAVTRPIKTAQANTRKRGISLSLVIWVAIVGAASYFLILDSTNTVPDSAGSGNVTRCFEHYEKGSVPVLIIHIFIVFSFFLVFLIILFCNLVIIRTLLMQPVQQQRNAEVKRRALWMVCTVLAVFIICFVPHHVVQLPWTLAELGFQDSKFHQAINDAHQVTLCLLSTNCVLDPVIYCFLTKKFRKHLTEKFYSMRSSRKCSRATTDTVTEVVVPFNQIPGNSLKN
Receptor Preparation: Ten units of in-dated human packed platelets, each containing 45-65 ml platelet rich-plasma, were purchased from a commercial blood bank. Disposable plasticware was used throughout for receptor preparation. The units were pooled and a 1 ml aliquot was removed for determination of platelet concentration, using a Coulter Counter. The remaining platelet rich plasma was dispensed into 50 ml conical tubes and centrifuged at room temperature for 15 minutes at 3000 RPM (2300×g).Plasma was decanted and the platelets were resuspended in 35 ml of buffer 10 mM Trizma 7.0, 2 mM EDTA (dipotassium salt), and 150 mM KCl) and transferred to fresh tubes, which were centrifuged again as above. The platelets were washed 3 times, avoiding contaminating erythrocytes at the bottom of the pellets. Pellets were consolidated at each step, and by the last wash with EDTA/KCl buffer, most of the erythrocytes were in 1 tube. The pellets were resuspended in buffer containing 10 mM Trizma 7.0 with 10 mM CaCl2. Following centrifugation, the buffer was decanted and the pellets were resuspended in the CaCl2 buffer, avoiding erythrocyte contamination by recovering less than 100% of the platelet pellets. The resuspended platelets were dispensed in 8-10 ml aliquots into Corex tubes and disrupted by three cycles of freezing (dry ice/ethanol) and thawing (24° C.). The tubes were centrifuged at 40,000×g for 20 minutes at 4° C. Supernatants were decanted and each pellet was resuspended in 5-7 ml 10 mM Trizma 7.0. All resuspended pellets were pooled and aliquots of about 1200 ml were dispensed into 1.5 ml microfuge tubes and frozen at -70° C. Protein content was determined by a fluorescamine protein assay.
Assay Methods: Receptor Characterization--Each receptor preparation was evaluated to determine the number of receptor populations, the number of PAF receptor equivalents/mg protein and the dissociation constant (KD) for PAF binding. This required 2-3 experiments in which the protein concentration was held constant and the ^3 H-PAF ligand concentration was varied from approximately 0.10-2.5 nM and the data was analyzed by Scatchard methodology. Total incubation volume was 250 ml for these procedures and incubations were conducted at 24° C. for 30 minutes. For further experimentation, total incubation volumes are 500 ml. Protein and ligand concentrations were adjusted to give 0.075 nM receptor equivalents in the presence of 0.75 nM ^3 H-PAF. Each receptor preparation was then used to determine the dose--response displacement relationship of unlabeled PAF and the PAF antagonist, triazolam. As long as the KD value and IC50 values for PAF and triazolam were consistent with similar data collected from past receptor preparations used in the assay, the new receptor preparation was used for evaluating compounds.
Assay Methods: Routine Assay of Compounds--The compounds were weighed precisely and solubilized in quantities of DMSO such that a 5 ml aliquot in the incubate would deliver the desired compound concentration. Compounds tested for the first time in this assay were evaluated at a concentration of 50 mM in the incubation medium. All compounds were generally solubilized in DMSO for about 2 hours prior to assay. Triazolam was always included in each screening assay as a compound inhibition control. A standard concentration of 50 mM inhibited ^3 H-PAF binding by approximately 50%. Nonspecific binding control solution was made by drying to completion about 26.2 ml unlabeled PAF under a stream of argon. PAF was resolubilized in 1000 ml DMSO. When delivered in a 5 ml aliquot, the final concentration of 1 mM PAF in the incubate exceeded by 1000-fold the concentration of ^3 H-PAF.
All buffers containing proteins were made at room temperature on the day of assay. Assay buffer was prepared by adding 125 mg human albumin to 25 ml of stock buffer (10 mM Trizma 7.4 with 20 mM CaCl2). […]
As usually defined, the IC50 is the concentration needed to halve the response being measured. `CC(C)N(C(=O)c1ccc(Cn2ccc3ncnc-3c2)c(F)c1)C1CCCCC1` [5-[4-(N-isopropyl-N-cyclohexylcarboxamido)-2-fluorobenzyl]imidazo[4,5-c]pyridine]: the IC50 was found to be 0.442 µM.
Same read-out and setting: then `CC(C)CN(C(=O)c1ccc(Cn2ccc3ncnc-3c2)cc1)C1CCCCC1` [5-[4-(N-isobutyl-N-cyclohexylcarboxamido)benzyl]imidazo[4,5-c]pyridine], with 2.82 µM.
On the same count and under the same terms, to `CCC(C)N(C(=O)c1ccc(Cn2ccc3ncnc-3c2)cc1)C1CCCCC1` (stereo not drawn) [5-[4-(N-sec.butyl-N-cyclohexylcarboxamido)benzyl]imidazo[4,5-c]pyridine] belongs 0.58 µM; to `COc1cc(C(=O)N(C2CCCCC2)C2CCCC2)ccc1Cn1ccc2ncnc-2c1` [5-[4{-(N-cyclopentyl,N-cyclohexyl)carboxamido}-2-methoxybenzyl]imidazo[4,5-c]-pyridine], 0.0302 µM; to `COc1cc(C(=O)N(C2CCCC2)C2CCCC2)ccc1Cn1ccc2ncnc-2c1` [5-[4-(N,N-dicyclopentylcarboxamido)-2-methoxybenzyl]imidazo[4,5-c]pyridine], 0.055 µM.

The same test, now with this note: read-out: Inhibition of ^3 H-PAF Binding to Human Platelet, % inhib.
What is called inhibition is the percentage by which the read-out fell short of the control. For the molecule `Cc1nc2ccn(Cc3ccc(C(=O)N(C4CCCC4)C4CCCC4)cc3)cc-2n1` [5-[4-(N,N-dicyclopentylcarboxamido)benzyl]-2-methylimidazo[4,5-c]pyridine], the inhibition at 50 µM is 70.8%.
Same read-out and setting: to `CC(C)(C)N(C(=O)c1ccc(Cn2ccc3ncnc-3c2)cc1)C1CCCCC1` [5-[4-(N-tert.butyl-N-cyclohexylcarboxamido)benzyl]imidazo[4,5-c]pyridine] belongs 87.7%.
On the same count and under the same terms, then `CC(C)N(C(=O)c1cccc(Cn2ccc3ncnc-3c2)c1)C1CCCCC1` [5-[3-(N-isopropyl-N-cyclohexylcarboxamido)benzyl]imidazo[4,5-c]pyridine], with 26.1%; and `CN(C(=O)c1cccc(Cn2ccc3ncnc-3c2)c1)C1CCCCC1` [5-[3-(N-methyl-N-cyclohexylcarboxamido)benzyl]imidazo[4,5-c]pyridine], with 38%.
